{"source": "ChEMBL document CHEMBL4888484", "about": "“Replenishing the malaria drug discovery pipeline: Screening and hit evaluation of the MMV Hit Generation Library 1 (HGL1) against asexual blood stage Plasmodium falciparum ,using a nano luciferase reporter read-out” (2022)", "note": "The campaign covered roughly 150,000 compounds. About 540 (0.36%) showed an effect of 50% or more. This is one part of the list.", "data": [{"tested_on": "Plasmodium falciparum", "experiment": "Primary screen in NF54 nanoGlo assay, in single point, at 2uM, 72h; a lower Z score goes with more inhibition", "assay_type": "functional, Erythrocyte", "settings": "timepoint 72 hour", "units": {"% Inhibition": "%"}, "values": [{"smiles": "CC(C)c1nnsc1CN1CC(=O)N(c2ccc3cn[nH]c3c2)C[C@@H]1C", "% Inhibition": -3, "Z score": 0.39}, {"smiles": "CN1C[C@@H](Nc2nccnc2N(C)C)CC1=O", "% Inhibition": -15, "Z score": 1.74}, {"smiles": "CN1CCCC2CN(CC(=O)Nc3ccc(F)c(Cl)c3)CCC21", "note": "(stereo not drawn)", "% Inhibition": -7, "Z score": 0.91}, {"smiles": "CS(=O)(=O)N1CCCC[C@@H]1CCNc1ccncn1", "% Inhibition": 3, "Z score": -0.31}, {"smiles": "CN1C(=O)CC[C@@]12CCN(C(=O)Nc1ccc3c(c1)OCCO3)C2", "% Inhibition": -5, "Z score": 0.78}, {"smiles": "Cc1nnc(CN(C)C(=O)c2cccc(-c3n[nH]c(N(C)C)n3)c2)o1", "% Inhibition": -6, "Z score": 1.09}, {"smiles": "O=S(=O)(c1ccc2c(c1)CCCC2)N1CC(n2ccnn2)C1", "% Inhibition": 4, "Z score": -0.49}, {"smiles": "C[C@H]1CCN(C(=O)NCc2cccc(NC(=O)c3ccco3)c2)C1", "% Inhibition": -10, "Z score": 1.37}, {"smiles": "COc1ncccc1C(=O)N1CCC2(CCC(=O)N(Cc3ccccn3)C2)CC1", "% Inhibition": -8, "Z score": 0.84}, {"smiles": "Cc1cc(NC(=O)N2CCC(C)(C)[C@@H](c3ccccc3)C2)nn1C", "% Inhibition": -10, "Z score": 1.33}, {"smiles": "COc1ccccc1-c1n[nH]cc1CN1CCC(N2C[C@H](OC)[C@@H]2c2cccnc2)CC1", "% Inhibition": 10, "Z score": -1.88}, {"smiles": "C#CCOc1ccc(N(C)CCOC)cc1", "% Inhibition": 1, "Z score": -0.14}, {"smiles": "Cc1ccc(F)c2oc(-c3nc([C@H]4CCC(=O)NC4)no3)cc12", "% Inhibition": 0, "Z score": -0.04}, {"smiles": "CCOC(=O)CN1CCS(=O)(=O)c2c(F)c(F)c(C(=O)Nc3cccc(F)c3)c(F)c21", "% Inhibition": -8, "Z score": 1.51}, {"smiles": "Cc1ccc(NC(=O)c2cnn3c(-c4cccc(C)c4)ccnc23)cc1", "% Inhibition": -5, "Z score": 0.68}, {"smiles": "CCC(C)N(CC(=O)Nc1cccc(C)c1C)C(=O)C1CCOC1", "note": "(stereo not drawn)", "% Inhibition": 0, "Z score": -0.05}, {"smiles": "COc1cccc(CC(=O)OCc2ccccn2)c1", "% Inhibition": -9, "Z score": 0.77}, {"smiles": "C(=C\\c1ccccc1)/COc1ccc2occ(-c3ccccn3)c2c1", "% Inhibition": -6, "Z score": 0.68}, {"smiles": "CC(C)c1nn(C)cc1-c1noc([C@]2(F)CCOC2)n1", "% Inhibition": -16, "Z score": 3.04}, {"smiles": "CC(c1ccc(S(C)(=O)=O)cc1)N1CCC2(O)CCCCC2C1", "note": "(stereo not drawn)", "% Inhibition": -7, "Z score": 1.25}, {"smiles": "O=C(c1ccncc1Cl)N1CCC2(CCCC2)C1", "% Inhibition": -7, "Z score": 0.73}, {"smiles": "O=C1[C@@H]2C3CCCN3[C@@]3(C(=O)Nc4ccccc43)[C@@H]2C(=O)N1c1cccc(Br)c1", "note": "(stereo partly drawn)", "% Inhibition": -3, "Z score": 0.29}, {"smiles": "Cc1cc(C(=O)N[C@@H](C)c2nc(-c3ccccn3)no2)c(C)n1C", "% Inhibition": 0, "Z score": -0.05}, {"smiles": "O=C(CCC1CCCCC1)NC1CCN(c2cn[nH]c(=O)c2)CC1", "% Inhibition": -10, "Z score": 1.05}, {"smiles": "Cc1csc(C(=O)N2CC[C@H](Oc3ccncn3)C2)c1", "% Inhibition": -8, "Z score": 1.31}, {"smiles": "CCC(C)C(NC(=O)OCc1ccccc1)C(=O)NC1CC1", "note": "(stereo not drawn)", "% Inhibition": -5, "Z score": 0.97}, {"smiles": "CCOC(=O)c1noc2ncnc(N3CCN(Cc4ccc5c(c4)OCO5)CC3)c12", "% Inhibition": 4, "Z score": -0.71}, {"smiles": "COc1ccccc1N(Cc1cc2cc(C)ccc2[nH]c1=O)C(=O)c1ccco1", "% Inhibition": 15, "Z score": -1.59}, {"smiles": "O=C(Cn1nc2c(-c3nc(-c4ccc(Cl)cc4)no3)cccn2c1=O)Nc1ccc(F)cc1", "% Inhibition": -13, "Z score": 1.71}, {"smiles": "COC(=O)[C@H](CC(C)C)NC(=O)Cn1nnnc1CN1CCCC1", "% Inhibition": -8, "Z score": 1.54}, {"smiles": "c1ccc(-c2csc(Nc3nc(NCc4ccco4)nc(N4CCCCC4)n3)n2)cc1", "% Inhibition": 1, "Z score": -0.15}, {"smiles": "CCCO[C@H]1CCCN(c2ncncc2C(=O)O)C1", "% Inhibition": -9, "Z score": 1.86}, {"smiles": "Cc1sc(-c2ccccc2F)nc1C(=O)N[C@H]1CCS(=O)(=O)C1", "% Inhibition": -22, "Z score": 2}, {"smiles": "CCc1nc2cc(N[C@@H](C(=O)OC)c3cccc(C#N)c3)ccc2o1", "% Inhibition": -1, "Z score": 0.16}, {"smiles": "O=C(Cn1c(=O)c2cccn2c2ccc(F)cc21)N1CCN(c2ccc(F)cc2)CC1", "% Inhibition": 9, "Z score": -1.44}, {"smiles": "Cc1nccn1CC(=O)NCC1CCN(c2cc(-c3ccccc3)n[nH]2)CC1", "% Inhibition": -27, "Z score": 2.74}, {"smiles": "COc1ccc(CNC(=O)[C@@H]2COCC(=O)N2Cc2ccc(C)cc2)c(OC)c1", "% Inhibition": 9, "Z score": -0.98}, {"smiles": "CC1CCC(N2CC(=O)N(Cc3ccc4c(c3)OCO4)[C@@H](c3ccc(F)cc3)C2=O)CC1", "note": "(stereo partly drawn)", "% Inhibition": 15, "Z score": -1.68}, {"smiles": "Cc1csc(=O)n1CCN(Cc1ccccc1C(F)(F)F)C1CC1", "% Inhibition": 9, "Z score": -1.17}, {"smiles": "CCOc1cnc(C(=O)N2CCS(=O)(=O)C[C@H]2C(C)(C)C)cn1", "% Inhibition": 1, "Z score": -0.12}, {"smiles": "CC(C)[C@@H](C(=O)OCc1nnc(-c2ccccc2)o1)c1ccc(Cl)cc1", "% Inhibition": -10, "Z score": 1.31}, {"smiles": "Cc1nn(C(=O)CCCC(=O)N2CCC(Cc3nncn3C)CC2)c2ccccc12", "% Inhibition": 6, "Z score": -0.73}, {"smiles": "CCn1cc(Cl)c(-c2nc([C@H]3CCOC3)no2)n1", "% Inhibition": 7, "Z score": -0.84}, {"smiles": "NCCCOC1CCN(C(=O)c2ncccc2OCC(F)(F)F)CC1", "% Inhibition": -5, "Z score": 0.6}, {"smiles": "O[C@]12CCCC[C@H]1[C@H](c1ccc3c(c1)OCO3)NCC2", "% Inhibition": -2, "Z score": 0.2}, {"smiles": "CCNC(=O)N1CCC(Cc2ccc(C(=O)N3CCN(c4ncccn4)CC3)cc2)CC1", "% Inhibition": 4, "Z score": -0.47}, {"smiles": "O[C@@H]1COCCN(C2CCN(c3ncc4ccc(F)cc4n3)CC2)C1", "% Inhibition": -8, "Z score": 1.13}, {"smiles": "Cc1ccsc1CN(CCN(C)C)Cc1ccc(C(F)(F)F)nc1", "% Inhibition": -16, "Z score": 2.29}, {"smiles": "Cc1ccc(NC(=O)N[C@H]2c3ccccc3-c3cc(C)ncc32)cc1", "% Inhibition": 28, "Z score": -3.21}, {"smiles": "Cn1nc(C2CCCOC2)cc1NC(=O)N[C@@H]1C[C@H]1C1CCCCC1", "note": "(stereo partly drawn)", "% Inhibition": -15, "Z score": 1.46}, {"smiles": "CCOCC[C@H](O)Cn1nnc(-c2ccc(Cl)cc2)c1C", "% Inhibition": -14, "Z score": 1.89}, {"smiles": "O=C(Nc1ccccc1Oc1ccccc1)c1ccc2ncsc2c1", "% Inhibition": -2, "Z score": 0.29}, {"smiles": "COCCn1cnnc1[C@H](C)NS(=O)(=O)c1c(C)cc(C)c2nonc12", "% Inhibition": -11, "Z score": 1.14}, {"smiles": "COC(=O)N(C)Cc1ccc(NCc2nccn2C(C)C)cc1", "% Inhibition": 0, "Z score": 0.09}, {"smiles": "CCn1cc(NC(=O)c2cncc(-c3ccc4c(c3)CCO4)c2)cn1", "% Inhibition": 5, "Z score": -0.54}, {"smiles": "Cc1ccsc1CN(CC(N)=O)C(C)C", "% Inhibition": -11, "Z score": 1.02}, {"smiles": "CC1(C)CNC(=O)[C@H]1NC(=O)NOCCC(F)(F)F", "% Inhibition": -4, "Z score": 0.63}, {"smiles": "O=C1N(CCCc2ccccc2)CCC[C@@]1(O)CN1CCN(CCO)CC1", "% Inhibition": -6, "Z score": 0.71}, {"smiles": "O=C(COc1ccccc1-c1nc2ccccc2s1)N1CCCc2ccccc21", "% Inhibition": 0, "Z score": 0}, {"smiles": "COc1cccc(CN(C)[C@H]2CCS(=O)(=O)C2)n1", "% Inhibition": 34, "Z score": -3.83}, {"smiles": "CCc1nn2c(c1-c1ccc(OC)c(S(=O)(=O)N3CCCCC3)c1)NC(=O)CCC2=O", "% Inhibition": -9, "Z score": 1.07}, {"smiles": "O=C(c1ccccc1F)N1CCCc2cc(S(=O)(=O)N3CCCC3)ccc21", "% Inhibition": -15, "Z score": 1.96}, {"smiles": "CCc1nc(C2CCCN2CC(=O)N(C)C(C)c2cccs2)no1", "note": "(stereo not drawn)", "% Inhibition": 28, "Z score": -3.15}, {"smiles": "O=C1CCN(S(=O)(=O)c2ccccc2)CCCN(C(=O)c2cccc3[nH]ccc23)CCN1", "% Inhibition": -9, "Z score": 1.05}, {"smiles": "Cn1nccc1-c1ccnc2nc(C3CCCCC3)nn12", "% Inhibition": 5, "Z score": -0.62}, {"smiles": "O=C(c1cc(Cl)c(Cl)[nH]1)N1CCC(C(=O)N2CCCCCC2)CC1", "% Inhibition": -2, "Z score": 0.39}, {"smiles": "CC1(C(=O)N2C[C@@H](Oc3cccnc3)C[C@H]2C(N)=O)CCCCC1", "% Inhibition": 5, "Z score": -0.66}, {"smiles": "COc1ccc(Cn2nc(C)nc2[C@H]2CC23CCC3)cc1", "% Inhibition": -16, "Z score": 2.34}, {"smiles": "CN(CC1(O)CCCCCC1)c1nc(C(F)(F)F)ns1", "% Inhibition": -5, "Z score": 0.79}, {"smiles": "C[C@H]1C(=O)N(Cc2cccc3occc23)C(=O)N1C", "% Inhibition": 4, "Z score": -0.49}, {"smiles": "O=S(=O)(c1ccc2c(c1)CCO2)N1CC(OCC(F)(F)F)C1", "% Inhibition": -10, "Z score": 1.58}, {"smiles": "O=C(CN1CCC(c2nnc3n2CCC3)CC1)NCc1cccc(Cl)c1", "% Inhibition": -14, "Z score": 1.46}, {"smiles": "C#CCCC1(CCC(=O)N2CC[C@](C)(C(N)=O)C2)N=N1", "% Inhibition": -13, "Z score": 1.57}, {"smiles": "C#CCN(CC(=O)N1CCCC1)Cc1cccc(C)n1", "% Inhibition": -12, "Z score": 1.27}, {"smiles": "CC(C)COc1ccccc1-c1c[nH]c(C(=O)N2CCOCC2)c1", "% Inhibition": -18, "Z score": 1.78}, {"smiles": "c1ccc(OCCc2nc3ccccc3[nH]2)cc1", "% Inhibition": 2, "Z score": -0.32}, {"smiles": "CC(C)(C)OC(=O)N/N=C(/N)Cc1ccccc1", "% Inhibition": -16, "Z score": 1.78}, {"smiles": "COc1ccc(C2NCC3(C)CN2CC(C)C3O)cc1OC", "note": "(stereo not drawn)", "% Inhibition": -11, "Z score": 1.25}, {"smiles": "COCc1c(C(=O)N2CCN(CC3CC3)[C@@H]3CS(=O)(=O)C[C@@H]32)noc1C", "% Inhibition": 11, "Z score": -1.43}, {"smiles": "COc1ccc(-c2nc3cc(C)ccn3c2NC(=O)CCc2ccccc2)cc1", "% Inhibition": 5, "Z score": -0.92}, {"smiles": "Cn1nc(C(=O)N2CCCCCCC2)c2ccccc2c1=O", "% Inhibition": -4, "Z score": 0.37}, {"smiles": "Cn1nc(C2CC2)n(C2CCN(S(=O)(=O)c3ccccc3)CC2)c1=O", "% Inhibition": 2, "Z score": -0.25}, {"smiles": "CCC(CC)(CNC(=O)c1cnn(C)c1)NC(=O)c1cnn(C)c1", "% Inhibition": -1, "Z score": 0.21}, {"smiles": "Cc1nocc1S(=O)(=O)N1CCC[C@H](c2nnc3ccccn23)C1", "% Inhibition": -7, "Z score": 0.79}]}]}
